Test results reported in paper PMC4336329 (PLoS ONE, 2015).
About 14,000 (4.5%) of roughly 310,000 compounds showed an effect of 50% or more. The effect is printed as a negative number. The list shows a part of the results.

These compounds were tested against human ether-à-go-go-related gene (hERG) potassium channel (human, UniProt Q12809) (assay: primary screen, population patch clamp on CHO cells stably expressing hERG).
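Further: peak tail current of the secondary pulse compared with the same well before compound.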

human ether-à-go-go-related gene (hERG) potassium channel, sequence (Q12809 whole entry, looked up): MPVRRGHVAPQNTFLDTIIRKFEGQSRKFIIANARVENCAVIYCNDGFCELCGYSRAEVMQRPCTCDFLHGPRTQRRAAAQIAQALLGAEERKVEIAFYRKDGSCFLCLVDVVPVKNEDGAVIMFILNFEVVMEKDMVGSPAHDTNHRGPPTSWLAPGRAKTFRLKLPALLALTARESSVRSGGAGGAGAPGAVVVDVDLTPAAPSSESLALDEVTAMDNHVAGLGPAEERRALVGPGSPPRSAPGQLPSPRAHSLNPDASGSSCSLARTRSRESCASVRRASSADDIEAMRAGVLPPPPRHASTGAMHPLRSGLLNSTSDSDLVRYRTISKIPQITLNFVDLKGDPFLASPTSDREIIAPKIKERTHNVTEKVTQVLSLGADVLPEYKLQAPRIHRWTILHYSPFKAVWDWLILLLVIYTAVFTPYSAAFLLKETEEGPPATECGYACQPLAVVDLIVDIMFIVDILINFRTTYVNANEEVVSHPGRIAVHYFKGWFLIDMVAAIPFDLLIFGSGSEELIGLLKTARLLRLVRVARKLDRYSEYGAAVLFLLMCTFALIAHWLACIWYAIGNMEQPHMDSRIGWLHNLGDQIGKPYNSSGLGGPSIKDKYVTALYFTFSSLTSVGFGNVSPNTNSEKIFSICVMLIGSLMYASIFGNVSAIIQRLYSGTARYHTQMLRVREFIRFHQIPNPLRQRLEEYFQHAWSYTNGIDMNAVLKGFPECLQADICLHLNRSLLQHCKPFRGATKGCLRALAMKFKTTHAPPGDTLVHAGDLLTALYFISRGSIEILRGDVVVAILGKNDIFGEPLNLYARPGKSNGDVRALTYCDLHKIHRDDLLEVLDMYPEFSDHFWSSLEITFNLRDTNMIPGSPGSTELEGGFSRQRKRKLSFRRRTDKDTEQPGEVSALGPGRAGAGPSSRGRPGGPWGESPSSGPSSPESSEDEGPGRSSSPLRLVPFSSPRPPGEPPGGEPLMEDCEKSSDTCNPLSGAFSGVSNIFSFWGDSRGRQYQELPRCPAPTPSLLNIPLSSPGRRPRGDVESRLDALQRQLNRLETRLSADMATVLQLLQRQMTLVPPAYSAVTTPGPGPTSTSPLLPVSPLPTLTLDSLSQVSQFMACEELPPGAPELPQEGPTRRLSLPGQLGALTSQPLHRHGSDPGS

| SMILES | hERG current change (%, negative = inhibition) at 10uM |
| --- | --- |
| O=C(c1cccc(S(=O)(=O)N2CCCC2)c1)N1CCN(c2ccccc2)CC1 | -13% |
| Cc1ccc(N2CC(C(=O)Nc3cccc(C(=O)NC4CC4)c3)CC2=O)cc1 (centres unmarked) | -4.71% |
| CNCCC(Oc1ccccc1OC)c1ccccc1.Cl (centres unmarked) | -53.5% |
| CCCC(=O)Nc1ccc(C(=O)NCCCn2ccnc2)cc1 | -4.08% |
| Cc1ccc(OCC(=O)NNC(=O)Nc2ccc(Cl)cc2)c(Br)c1 | 3.59% |
| Cn1c(NC(=O)C[n+]2cc(-c3ccccc3)n3c2CCC3)cc(=O)n(C)c1=O.[Cl-] | -3.14% |
| CCn1c(=NC(=O)c2ccco2)sc2cccc(F)c21 | 9% |
| Cc1cc(OCC(=O)Nc2ccc(Br)cc2)cc2c1C(=O)CC(C)(C)O2 | 2.04% |
| Cc1ccc2nc(Cc3ccc(N)cc3)[nH]c2c1.Cl | 12% |
| Cc1ccn(C(=O)c2ccc(NC(=O)C3CC3)cc2)n1 | 11.7% |
| CCc1cccc(NC(=O)Cn2cc(C=O)c3ccccc32)c1 | 4.05% |
| COc1cc2c(C(=O)NCCCN3CC(C)CC(C)C3)cn(CC(C)C)c(=O)c2cc1OC (centres unmarked) | -10.2% |
| COc1ccccc1CNC(=O)[C@H](C)NC(=O)C1CCN(C(=O)[C@H](CCSC)NC(=O)OC(C)(C)C)CC1 | 3.05% |
| O=C1C(C2=C(O)c3ccccc3C2=O)=Nc2ccccc21 | -7.06% |
| CCC(C)(C)n1nnnc1C(c1ccc2ncccc2c1)N1CCN(Cc2ccc3c(c2)OCO3)CC1 (centres unmarked) | -69.7% |
| Cc1ccc(-c2nnc(NC(=O)c3c(F)cccc3Cl)s2)cc1 | 15.5% |
| CC(=O)N1N=C(c2cccnc2)OC1c1ccccc1Cl (centres unmarked) | -19.6% |
| COc1ccc(CNC(=O)C(C)N=C2NS(=O)(=O)c3ccccc32)cc1OC (centres unmarked) | 16.7% |
| O=C(NCCO)c1cc2ccccc2cc1O | 10.8% |
| Cc1nc(SCC(=O)Nc2ccccc2Cl)oc1C | 14.2% |
| O=C(Nc1ccccc1C(=O)NCCc1ccccc1)c1cnccn1 | -24.7% |
| CC1CCCCN1C(=O)Cn1c(=O)oc2ccccc21 (centres unmarked) | -13.8% |

| SMILES | hERG current change (%, negative = inhibition) at 10uM |
| --- | --- |
| CN(CC(=O)Nc1ccc(Cl)c(C(F)(F)F)c1)C(=O)c1cc(=O)[nH]c2ccccc12 | 15.9% |
| N=c1c(C(=O)NCc2ccccc2)cc2c(=O)n3ccccc3nc2n1Cc1ccco1 | -76.4% |
| COc1ccc(NC(=O)CN(C)C(=O)c2ccc3[nH]c4c(c3c2)CC(C)CC4)cc1 (centres unmarked) | 7.28% |
| CC1(C)Cc2nc3sc(C(=O)O)c(N)c3cc2CS1 | 29.4% |
| COc1ccc(CC(=O)Nc2cccc(C(=O)Nc3cccc(C)c3)c2)cc1 | -1.93% |
| CCOc1ccc(OCC)c(NC(=O)CN(C)S(=O)(=O)c2cccc3nsnc23)c1 | -15.3% |
| Cc1ccc(CS(=O)(=O)Cc2ccc(C(=O)NCc3cccs3)o2)cc1 | -20.2% |
| COc1ccc(OC(=O)c2cnc3n(c2=O)CCS3)cc1 | 8.8% |
| Brc1ccccc1C1Nc2cccc3cccc(c23)N1 | -8.96% |
| COc1ccc(C(CC(=O)NCCCN2CCOCC2)NS(=O)(=O)c2ccc(C)cc2)cc1 (centres unmarked) | -13.2% |
| Cc1c(CN2CCN(CC(C)C)C(CCO)C2)[nH]c2ccc(Cl)cc12 (centres unmarked) | -34.4% |
| CSCCC(NS(=O)(=O)c1cccs1)C(=O)NCc1ccc(C)cc1 (centres unmarked) | -6.78% |
| CCCCCn1nc(C)c(/C=N/NC(=O)c2ccoc2C)c1C | -43.8% |
| Cc1ccnc(NC2CCCCC2)c1 | 20.4% |
| CC(=O)NC1CSCC1OC(C)=O (centres unmarked) | 9.45% |
| COc1ccc(CCNC(=O)CSc2ccc(-c3ccccc3)nn2)cc1 | -13.1% |
| Cc1ccc(CN2CC(C(=O)N3CC=C(c4ccccc4)CC3)CC2=O)cc1 (centres unmarked) | -32.6% |
| Cc1ccc(NC(=O)CSc2nnc(C)n2C2CC2)cc1S(=O)(=O)N1CCOCC1 | -11.5% |
| Cc1cccc2cn[nH]c12 | 7.12% |
| O=C(COC(=O)c1cccc(S(=O)(=O)N2CCCCC2)c1)NC1CCCCC1 | 10% |
| CC(=O)Nc1ccc(Nc2ccccc2)cc1 | 7.4% |
| Cc1ccc(C)c(CNS(=O)(=O)c2c(C(=O)N3CCCC3)c(C)n(C)c2C)c1 | 1.45% |
